# Source: article PMC6212790
# The list shows a part of the results. At the low end of the ranking, values are background and their order means little.
# Target: T1, GST-Rok (full length) (UniProt O34857)
# T1 sequence: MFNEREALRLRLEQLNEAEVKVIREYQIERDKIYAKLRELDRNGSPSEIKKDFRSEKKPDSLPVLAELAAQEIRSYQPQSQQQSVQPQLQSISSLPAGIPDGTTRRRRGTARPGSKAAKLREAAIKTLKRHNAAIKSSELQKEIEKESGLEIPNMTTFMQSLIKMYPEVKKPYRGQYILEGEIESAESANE
# Assay: protein binding microarray;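 also: rank score from −0.5 (least bound) to 0.5 (best bound)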
# Conditions: Rok is a gene silencer of Bacillus subtilis; high values mean tight binding; most listed sequences are background and not binding sites; double strand, one strand shown
row,Sequence,binding signal [E-score]
1,CGCTAGTC,-0.0204
2,ACTGAGCA,-0.062
3,ATACCATG,0.277
4,AGGTGGAA,-0.0285
5,AGCCTCCC,-0.325
6,AAGTTCGG,0.0724
7,AACGCACT,0.0323
8,AGCGTTCC,-0.0101
9,CTGCGTCA,-0.201
10,GAGTTGAA,0.00685
11,GCTGCCGA,-0.27
12,GAGAGGCA,-0.321
13,ATGCTTGG,0.0139
14,CACAGAAA,0.124
15,CTACACCA,0.135
16,AATGAGCG,-0.182
17,ATTTTTGG,0.214
18,CCCACAGG,-0.304
19,ACTCAGGC,-0.102
20,ATAAAAAG,0.157
21,ATAAGTGA,0.123
22,GGTCCCAA,-0.129
23,CCTGGACA,-0.0802
24,CAACCCCG,-0.331

row,Sequence,binding signal [E-score]
1,GTTTCTTA,0.226
2,ACTGCAGG,-0.114
3,CGATGTAA,0.000585
4,CATGTGGA,0.072
5,AACAGAAC,-0.0552
6,GAGAGATC,0.0196
7,GATGGTTA,0.0373
8,ATAGCGAT,0.0956
9,CCTGAACA,-0.0722
10,TGCCTGAA,-0.0566
11,AAACAAAC,-0.268
12,CAGACCAG,-0.334
13,CTCGCGTC,-0.369
14,ACGGCTGA,-0.0768
15,AACCGAAT,0.0509
16,ATCTCCAC,0.0613
17,AGTCATCA,-0.0381
18,GGAATTGA,0.0869
19,CCGAGTCG,-0.123
20,ACTGCCAA,-0.204
21,AAATGTTG,0.0761
22,GGACGGCC,-0.334
23,CGTGCCCA,-0.347
24,GCAACTCA,-0.177

row,Sequence,binding signal [E-score]
1,GAGAACTA,0.326
2,ATCGATCA,0.205
3,AGTATAAC,0.214
4,GGAAGCAA,-0.0536
5,CATTGATC,0.00852
6,ATCTGCCG,0.0903
7,GCGATTAC,-0.0455
8,AATTCTCG,0.191
9,CTCGTGAC,-0.151
10,ACCCCTCA,-0.332
11,CGTTTTGA,-0.0508
12,CTGTTGCA,-0.00274
13,TAGATACA,0.316
14,AACCGTCG,-0.0152
15,CGAGTAAG,-0.156
16,CAATAGCA,0.101
17,ATCACTGG,-0.0489
18,GCAGATCA,-0.0662
19,CGTCCCGC,-0.238
20,CAAGCGTA,-0.175
21,ATCAACCA,0.0381
22,AGTGAAGG,-0.267
23,GCTAATAA,0.0777
24,GGGAACGA,-0.163

row,Sequence,binding signal [E-score]
1,CGATCTAA,-0.00615
2,ATGCTATC,0.208
3,TGATAGCA,0.263
4,CCAACAGC,-0.1
5,AACAACAA,0.0134
6,AGCAGCTG,-0.25
7,GTCTCTGA,-0.0376
8,GTAACTCA,0.22
9,AGAAATCC,0.0902
10,AATACTCC,0.254
11,ATTAGATC,0.293
12,AGACCGCC,-0.271
13,TATCGGGA,0.167
14,CCGCGGAC,-0.169
15,ACAGAACC,-0.171
16,AAGTGGGC,-0.172
17,CTGATATC,0.0327
18,CACAGCAC,-0.155
19,CGCTAGCA,-0.0113
20,CAATCCAG,0.0683
21,GCCATGGC,-0.269
22,CGAGCCCA,-0.227
